Reference: article PMC7618510, “The accessory protein MRAP2 directly interacts with melanocortin-3 receptor to enhance signaling” (Science signaling, 2025)

Target: T1, HA-Halo-MRAP2 (human, UniProt Q96G30 1-205, CA-Sulfo646 dye on the Halo tag)
T1 construct: melanocortin-2 receptor accessory protein 2 (MRAP2), human; S14 and the UBIRA repository; also called ss-HA-Halo-MRAP2; source: HEK293 (AD-293), transiently transfected, in lysate (LMNG-CHS); not shown: HA, N-terminal, kept; Halo, N-terminal, kept
T1 sequence (looked up): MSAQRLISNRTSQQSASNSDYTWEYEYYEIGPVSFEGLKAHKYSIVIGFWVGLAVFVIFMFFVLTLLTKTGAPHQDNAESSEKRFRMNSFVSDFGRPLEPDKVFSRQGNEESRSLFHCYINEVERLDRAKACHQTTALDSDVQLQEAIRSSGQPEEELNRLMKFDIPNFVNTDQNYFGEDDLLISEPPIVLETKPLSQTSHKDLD
Assay: single-molecule pull-down (SiMPull) with photobleaching step counting; two colours: lysate of HEK293 cells cotransfected with 300 ng HA-Halo-tagged and 600 ng FLAG-CLIP-tagged plasmid, labelled at the surface with CA-Sulfo646 and BC-DY547, lysed in 0.5% LMNG/0.05% CHS; HA-tagged protein immobilised on HA antibody; co-localised spots and bleaching steps counted by TIRF
Settings: partners not purified

B1: FLAG-CLIP-MC3R (receptor, human, UniProt P41968 1-323, looked up)
chain: MNASCCLPSVQPTLPNGSEHLQAPFFSNQSSSAFCEQVFIKPEVFLSLGIVSLLENILVILAVVRNGNLHSPMYFFLCSLAVADMLVSVSNALETIMIAIVHSDYLTFEDQFIQHMDNIFDSMICISLVASICNLLAIAVDRYVTIFYALRYHSIMTVRKALTLIVAIWVCCGVCGVVFIVYSESKMVIVCLITMFFAMMLLMGTLYVHMFLFARLHVKRIAALPPADGVAPQQHSCMKGAVTITILLGVFIFCWAPFFLHLVLIITCPTNPYCICYTAHFNTYLVLIMCNSVIDPLIYAFRSLELRNTFREILCGCNGMNLG
modifications: BC-DY547 (CLIP-surface 547) dye on the CLIP tag
notes: melanocortin-3 receptor (MC3R), human; S14 and the UBIRA repository; also called ss-FLAG-CLIP-MC3R; source: HEK293 (AD-293), transiently transfected, in lysate (LMNG-CHS); not shown: FLAG, N-terminal, kept; CLIP, N-terminal, kept
stoichiometry N: 1 MRAP2 per MC3R
